Measurements reported in PubChem BioAssay AID624418 (National Center for Advancing Translational Sciences (NCATS), 2012).
Among all 410,000 compounds or so, about 530 (0.13%) were called active. The shares of active, inactive and inconclusive entries below differ from those in the screen. Calls come from the whole dose curve; as a rule, active = well fitted inhibition curve with a large enough effect; inconclusive = small, poorly fitted or top-dose-only effect, or another doubt; inactive = no such curve, though single readings can be large or run the other way. Potencies beside an inconclusive call are fits to weak or partial responses and may not hold up.

assay: qHTS of GLP-1 Receptor Inverse Agonists: Cytotox Screen; conditions: HEK293 cAMP-luciferase reporter cells, luminescence, 24 h; series mostly up to 38.3 µM
Summary of the method: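 Cells in DMEM/10% Nu serum/1% pen-strep, 1536-well format. Pre-incubated 12 h, dosed with 23 nL compound, incubated a further 24 h. Luciferase detection, 12 min at room temp, luminescence.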
Potency is the fitted concentration of half-maximal effect.

| SMILES | Potency |
| --- | --- |
| CC(C)(C)c1ccc(C(=O)NCC(c2cccs2)S(=O)(=O)c2ccc(F)cc2)cc1 (centres undefined) | inactive |
| COc1ccc(NC(=O)C2CCN(c3cc(C)nc(-c4ccccc4)n3)CC2)cc1 | inconclusive: 8.91 µM [inhibitor, partial curve] |
| c1ccc(-c2nc(N3CCOCC3)c3ccccc3n2)nc1 | inconclusive: 3.16 µM [inhibitor, full curve, poor fit] |
| Cc1ccccc1N1C(=O)C(Oc2ccc(Cl)cc2)C1CNCCCOC(C)C (centres undefined) | inconclusive: 20 µM [inhibitor, single point] |
| COc1ccc(S(=O)(=O)N[C@H]2CC[C@H](CCNC(=O)c3ccccc3F)O[C@@H]2CO)cc1 | inactive |
| Cc1cc(NS(=O)(=O)c2ccc(NC(=S)NC(=O)c3ccncc3)cc2)no1 | inconclusive: 22.4 µM [inhibitor, single point] |
| COc1ccc(/C(C)=N/NC(=O)Cn2nc([N+](=O)[O-])cc2C)cc1 | inconclusive: 28.2 µM [inhibitor, single point] |
| COC(=O)c1cc(C)nc2c1C(=O)C(=O)C=C2N1CCOCC1 | inconclusive: 6.31 µM [inhibitor, partial curve, poor fit] |
| Cc1cc(CSc2ccccc2)ccc1NC(=O)c1ccc(Br)cc1 | inconclusive: 8.91 µM [inhibitor, partial curve, poor fit] |
| O=S(=O)(Nc1cccc(-c2ccc(N3CCCCCC3)nn2)c1)c1ccccc1F | inactive |
| Cc1csc(NC(=O)c2ccccc2)n1 | inactive |
| CCc1ccc(C(=O)NNc2ccc(Cl)cc2)cc1 | inconclusive: 1 µM [inhibitor, partial curve, poor fit] |
| COc1ccccc1N1CCN(C(=O)c2ccc3c(c2)N(Cc2ccccc2)C(=O)c2ccccc2S3(=O)=O)CC1 | inactive |
| Cc1ccc(NC(=S)NNc2ccc(C(=O)O)cc2[N+](=O)[O-])cc1C | inconclusive: 28.2 µM [inhibitor, single point] |
| COc1cccc(/C=C2\SC(=S)NC2=O)c1OS(=O)(=O)c1ccc(NC(C)=O)cc1 | inconclusive: 28.2 µM [inhibitor, single point] |
| CCN(CC)C(=O)C(=O)Nc1ccc(F)c(Cl)c1 | inactive |
| O=C(NC(=S)N1CCOCC1)c1cn(-c2ccccc2)nc1-c1ccccc1 | inconclusive: 2.82 µM [inhibitor, full curve] |
| Cc1cc(N2CCN(C)CC2)ccc1NC(=O)c1cccc(S(=O)(=O)N2CCc3ccccc3C2)c1 | inconclusive: 28.2 µM [inhibitor, partial curve, poor fit] |
| COc1ccc(NC(=S)N(CCCN2CCC(C)CC2)Cc2cccs2)cc1Cl | inconclusive: 28.2 µM [inhibitor, single point] |
| O=C(Cc1ccccc1)NC1CC(=O)N(c2ccc3c(c2)OCCO3)C1 (centres undefined) | inactive |
| COC(=O)c1sc(NC(=S)NC(=O)c2ccccc2C)nc1C | inconclusive: 12.6 µM [inhibitor, single point] |
| COCCCNC(=S)NNC(=S)Nc1ccccc1 | inactive |

| SMILES | Potency |
| --- | --- |
| Cc1cccc(N2C(=O)CC(Sc3nc(C)cc(C)n3)C2=O)c1 (centres undefined) | inactive |
| CCOc1cccc(/C=C2\NC(=S)N(c3ccccc3)C2=O)c1O | inconclusive: 31.6 µM [inhibitor, single point] |
| Oc1ccc(C2Nc3cccc4cccc(c34)N2)cc1 | inconclusive: 10 µM [inhibitor, single point] |
| O=C(NCC1COc2ccccc2O1)c1ccc(NC(=O)C(c2ccccc2)c2ccccc2)cc1 (centres undefined) | inconclusive: 28.2 µM [inhibitor, single point] |
| Cc1cc(C(=O)CS(=O)(=O)c2ccc(F)cc2)cc(C)c1O | inconclusive: 10 µM [inhibitor, partial curve] |
| COc1ccc(C2CC(=O)c3cnc(Nc4cc(C)cc(C)c4)nc3C2)cc1 (centres undefined) | inactive |
| Cc1c(S(=O)(=O)NCCc2ccccc2)c(=O)n(C)c(=O)n1C | inactive |
| COc1ccc2c(c1)/C(=C/c1cc(OC)c(OC)c(OC)c1)C(=O)N2 | inconclusive: 2.82 µM [inhibitor, full curve] |
| CCc1ccc(-n2c(Cc3ccccc3)n[nH]c2=S)cc1 | inconclusive: 28.2 µM [inhibitor, single point] |
| CCc1cccc2c(SC(C)C(=O)NCC3CCCO3)nc(-c3ccccc3)nc12 (centres undefined) | inactive |
| CC(C)Cn1c(N)c(C(=O)COC(=O)c2ccc(Cl)cc2)c(=O)n(C)c1=O | inactive |
| O=C1/C(=C/c2ccco2)SC(=S)N1CC1CCCO1 (centres undefined) | inconclusive: 10 µM [inhibitor, single point] |
| CCOc1ccccc1C(=O)Nc1cc2c(cc1N1CCCC1)n(CC)c(=O)n2CC | inconclusive: 6.31 µM [inhibitor, partial curve, poor fit] |
| Cc1cccc(-n2c3nc(=O)[nH]c(=O)c-3cc3cc([N+](=O)[O-])ccc32)c1 | inconclusive: 3.98 µM [inhibitor, full curve] |
| COc1ccc2nc(NC(=O)c3sc4nc(C)cc(C)c4c3N)sc2c1 | inactive |
| COc1ccccc1/C=N/NC(=S)NCc1ccco1 | inconclusive: 12.6 µM [inhibitor, single point] |
| COc1ccc(Cc2nnc(NC(=O)CSc3ccccc3)s2)cc1 | inactive |
| CSc1ccccc1C(=O)Nc1ccc2c(c1)OCCO2 | inconclusive: 28.2 µM [inhibitor, single point] |
| Cc1ccc2nc(-c3ccc(NC(=O)Cc4cccs4)cc3)[nH]c2c1 | inconclusive: 3.55 µM [inhibitor, partial curve, poor fit] |
| CC(C)N=C1CCCC1C(=S)SSC(=S)C1CCCC1=NC(C)C (centres undefined) | inconclusive: 0.316 µM [inhibitor, full curve, poor fit] |
| C/C(=N\NC(=O)C12CCC(C)(C(=O)O1)C2(C)C)c1ccccc1O (centres undefined) | inconclusive: 3.55 µM [inhibitor, partial curve, poor fit] |
| O=C(N/N=C/c1cccs1)c1cncc(Br)c1 | inconclusive: 28.2 µM [inhibitor, single point] |
